Measurements published in the supplement of paper PMC3334620.
Over roughly 33,000 sequences, “E-score (-0.5 to 0.5)” has its median near -0.016; the highest 2% begin near 0.32. The list shows a part of the results.

Molecular target: T1, Stp1 (UniProt B3LFK1)
T1 sequence: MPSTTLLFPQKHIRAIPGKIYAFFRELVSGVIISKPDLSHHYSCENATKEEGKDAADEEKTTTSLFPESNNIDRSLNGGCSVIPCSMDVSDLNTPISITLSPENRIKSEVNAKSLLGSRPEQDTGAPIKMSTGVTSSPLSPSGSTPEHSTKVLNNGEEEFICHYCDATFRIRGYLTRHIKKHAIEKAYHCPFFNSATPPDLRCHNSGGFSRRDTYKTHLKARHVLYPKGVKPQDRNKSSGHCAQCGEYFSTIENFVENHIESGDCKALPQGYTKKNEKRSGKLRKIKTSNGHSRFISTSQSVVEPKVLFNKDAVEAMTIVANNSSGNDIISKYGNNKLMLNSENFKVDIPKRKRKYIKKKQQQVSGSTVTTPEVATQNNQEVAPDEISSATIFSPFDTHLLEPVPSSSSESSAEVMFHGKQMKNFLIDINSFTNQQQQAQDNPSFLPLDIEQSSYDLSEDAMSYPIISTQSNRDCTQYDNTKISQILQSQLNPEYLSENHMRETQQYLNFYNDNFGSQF
Assay: PBM E-score (8-mer binding enrichment) (E-score (-0.5 to 0.5)); higher = stronger / more preferred TF binding; most listed sequences are background and not binding sites
Settings: protein concentration: 200 nM; construct: GST-full length
How it was run: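 PURExpress in vitro transcription/translation supplied GST-tagged yeast transcription factors, either full-length or DNA-binding domain. Applied at about 100-200 nM to universal all-10-mer Agilent arrays double-stranded by primer extension, the bound protein was detected with fluorescent anti-GST. E-scores, modified Wilcoxon-Mann-Whitney statistics, were given by the Universal PBM Analysis Suite to ungapped eight-base words pooled with their reverse complements after masliner normalisation.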

| Sequence | PBM E-score |
| --- | --- |
| CCTGCGCG | 0.0126 |
| CCGCCTCA | 0.246 |
| AGAAGGGG | -0.166 |
| CATCCTTA | -0.0162 |
| ATGATATG | 0.0864 |
| GGAGTGAC | -0.0819 |
| CAGAGAGG | -0.207 |
| CCTTCTCG | -0.0971 |
| GTGCACGA | -0.0788 |
| ACTTAGCG | 0.0102 |
| AGGCAAAC | 0.118 |
| ATCACCAC | 0.0187 |
| ATAAGGGC | -0.0696 |
| CACCGCTC | -0.0467 |
| CAGTAGTC | -0.252 |
| GTCGAACA | 0.0174 |
| ACTTTGAA | 0.0491 |
| AACGATGG | -0.155 |
| ACAGAACT | 0.0231 |
| ACCCTGAT | -0.229 |
| AGATGAGA | 0.0792 |
| AATCTAAA | 0.131 |
| CTGATATC | 0.272 |
| GCGGAAAA | 0.176 |
| GCACCTGA | 0.00901 |

| Sequence | PBM E-score |
| --- | --- |
| GCAAGGAC | 0.00567 |
| AAGACAAC | 0.187 |
| ACACAGTA | 0.0897 |
| ATTTGACC | -0.015 |
| ACCATGAC | 0.0685 |
| AAGTCTAG | -0.31 |
| CACGAGTG | -0.0748 |
| GAAATAAC | 0.153 |
| CTTAATAA | 0.129 |
| GAGACAAA | -0.169 |
| AACAGTGC | -0.0025 |
| TATCAACA | 0.107 |
| CGCGCCCA | 0.213 |
| TAACTTAA | 0.213 |
| GCAGTCGA | -0.137 |
| ACGGCTAA | 0.377 |
| ACCTTTAC | 0.0425 |
| GGCGGTGA | -0.0389 |
| CAGGTCCC | -0.157 |
| AGCACATG | 0.0725 |
| GTATAGTA | -0.00942 |
| ATATGCAT | -0.0712 |
| CTCAAAGA | -0.163 |
| AGAGTGTC | 0.0784 |
| ACAGAAAG | 0.0157 |

| Sequence | PBM E-score |
| --- | --- |
| GGGCACTA | 0.23 |
| ACTATAAA | 0.171 |
| ATATCTTG | 0.0836 |
| AATCGACG | 0.0603 |
| AACAACAG | -0.0396 |
| CAAGGACA | 0.00903 |
| GTCGTCAA | -0.0852 |
| CGATTGGA | 0.00336 |
| GAATATAC | 0.116 |
| AATCTCGT | 0.108 |
| CCTCACAA | 0.151 |
| TAAAAATA | 0.227 |
| ATGAAGTA | 0.0646 |
| AGTTCAGC | -0.165 |
| CGTCAAAA | 0.164 |
| ATATGGAA | -0.0684 |
| AGCGCTTG | -0.16 |
| GTGGTAAC | -0.0165 |
| ACCCTCCG | -0.326 |
| CGTATTGA | 0.108 |
| AAGAATGC | 0.101 |
| ACCGGACG | 0.175 |
| CATAGTCG | -0.142 |
| CTGGTAGC | -0.0574 |
| GGACCGAA | -0.0482 |

| Sequence | PBM E-score |
| --- | --- |
| ACGGCCGT | 0.401 |
| AAGGGAAC | -0.185 |
| ACGTAACA | 0.05 |
| ATCTAAGA | 0.0545 |
| ATGTGTGC | -0.149 |
| CTTGCGGA | -0.11 |
| TAGTGCAA | 0.0577 |
| CATAACGA | -0.0382 |
| CGCAATAA | 0.15 |
| GTTAGCCA | -0.117 |
| AACTACGT | -0.0263 |
| ACATATAA | 0.213 |
| ATTACAGG | 0.159 |
| ATGACAGA | 0.0404 |
| GGGGCCAC | -0.225 |
| AGTTGGTC | -0.0836 |
| ATTCGAAA | 0.0825 |
| GCCGGCAC | 0.273 |
| GGATGCAC | -0.0258 |
| AGCGACAT | -0.122 |
| CCGAACCG | -0.14 |
| ATTATACA | 0.138 |
| CAAGGAGA | -0.115 |
| AAAACGAT | -0.0519 |
| CAAATCGC | -0.0312 |

| Sequence | PBM E-score |
| --- | --- |
| GAGGGACC | -0.281 |
| CTTAAGTC | -0.195 |
| ACGCTCGG | 0.0606 |
| AACGCCCT | 0.203 |
| CGGAGGAG | -0.273 |
| CAACAGCG | 0.0186 |
| ACATGCTC | -0.116 |
| TAATGGGA | -0.18 |
| ATATAAGC | 0.226 |
| CCGACGCG | 0.139 |
| TAGCAGCA | -0.0684 |
| TCATCCGA | 0.0548 |
| CCTCCAAC | -0.231 |
| CACAGAAG | -0.0547 |
| ACGATATA | 0.0856 |
| CACGAAAC | 0.116 |
| GGCAAAAC | 0.254 |
| CCGTGCCA | 0.35 |
| CCTAAGCG | -0.0546 |
| GCTGGTGA | -0.124 |
| GCGACCTA | -0.0105 |
| AGGACAAC | -0.0781 |
| GCAATACC | -0.0888 |
| AGTCCAAG | -0.0202 |
| TCTATTAA | 0.107 |

| Sequence | PBM E-score |
| --- | --- |
| GGAAAGAC | -0.139 |
| ATAAAAGG | -0.0598 |
| GAAATTTA | 0.12 |
| ACTATGAG | -0.0844 |
| CGATTGAG | -0.0836 |
| GAATTATA | 0.0753 |
| CTACTACA | 0.211 |
| ACACCCCA | -0.171 |
| CAACAGTG | 0.0314 |
| TCTGTTCA | -0.0375 |
| CTATAGGA | -0.0284 |
| ATCCTCCA | -0.024 |
| ACGACTAC | 0.0203 |
| GCTGTGAC | 0.0353 |
| ACCACGGC | 0.327 |
| CGTTCGAG | 0.0335 |
| CGACGACA | -0.0356 |
| AGGAGTCA | -0.112 |
| AATGTCGA | 0.147 |
| GGAAGAAC | -0.00337 |
| AGTGTCGA | -0.0803 |
| ATCTCGGA | 0.0138 |
| GACTTATA | -0.0235 |
| GCATTGTA | 0.0479 |
| ACACTACG | 0.0872 |

| Sequence | PBM E-score |
| --- | --- |
| CAATTGTC | -0.0427 |
| CCGCCTCG | 0.298 |
| AGGTTGTA | 0.161 |
| ACCCACGG | -0.0019 |
| ACGTGGCA | 0.152 |
| AAATGCGA | 0.0669 |
| CGGGCTTC | -0.227 |
| ACAGGAAC | -0.117 |
| TTCATAAA | 0.167 |
| GGCGACGA | 0.123 |
| ACATTTTA | 0.254 |
| GCGTTCGA | 0.133 |
| CGGATGGC | 0.14 |
| CTAGATTC | -0.0891 |
| ATCGAACA | -0.00011 |
| CTAACTCA | -0.0903 |
| ACCAAAGG | -0.131 |
| CGTTTTAA | 0.0794 |
| GCGCGGAC | 0.256 |
| GTAATTTA | 0.101 |
| ACCTGAAT | 0.0465 |
| CCCTGGTC | -0.41 |
